Measured values from the supplement of paper PMC11417369.
Some of the results follow.

test system: PfAP2-HC AP2 domain (GST-tagged); assay: gcPBM binding intensity (ln(normalized median fluorescence intensity)); higher = stronger DNA binding
Outline: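 Binding intensity is defined as the maximum Masliner-normalised natural-log median intensity across replicate spots for either probe orientation. It was measured on an Agilent 4 × 180k array of primer-extended double-stranded 36-bp intergenic genomic probes and negative controls, to which GST-tagged P. falciparum DNA-binding domains made in E. coli were applied for 1 h in 1× PBS with 1% milk, 0.2 mg/ml BSA, 0.5% salmon testes DNA and 0.03% Triton X-100. Detection was by Alexa488 anti-GST antibody and scanning at 488 nm.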

Sequence | gcPBM binding intensity (ln)
TAATATTTACATATTACACACACGTATTATTAAATA [CACACA_site6340] | 9.75
TATTTTTTAAAAATGGGTACACATAAATAAATAAAT [XGTACX_site7643] | 9.4
ATCTAAACAAATAATACACACAATAAAATAGGAAGA [CACACA_site4072] | 10.1
TGTGAATAAATAAGCACACATAAACCCATATATAAA [CACACA_site4103] | 10.1
TTCAAAATAAAAAATTCACACACATATATATATATA [CACACA_site8653] | 9.83
TTATAATCAATGAATACACACATATATTTCATTAAT [CACACA_site5909] | 9.78
TAATAATAGAGACACACACACATAGACATATAAATA [CACACA_site6729] | 10.9
ATCTATGAAAAAGGTACATGCAATAAAGAAACATAT [TGCATGCA_site805] | 9.72
TTATACTATTTTTATACATGCATTTCTATATATTTT [TGCATGCA_site316] | 9.9
ATTTATTAAATTTATAGTACTCAAAGATTTTTATTT [XGTACX_site6661] | 9.51
AAATAAAACAATTAACGTACAAGCATATATATATAT [XGTACX_site8508] | 9.71
TATGTATAATTATTTTGTACTTATTAAATTTTTTTT [XGTACX_site5413] | 9.53
TATATATATATTATATGTACACAAGGAAATATGCAT [XGTACX_site5637] | 9.82
AAATAAAAAAAAATAGCACACATAAATATATTATAT [CACACA_site8155] | 9.81
CTAGGTATGCTTTAAACATGCAAAAATACAAATTAC [TGCATGCA_site239] | 9.64
ATATATAAATATATTTGTACATATAATATGTATTAT [XGTACX_site8820] | 9.69
TTTTGTTATAATAAAGTGCATTTAGTCGGGTTACAA [GTGCAC_site9779] | 9.43
AAATATTATAAAAAGGTGCATTTTTATTATATGAGT | 9.65
AATTTAAAAAAAATCACACACAGAAAAAAAAAAAAA [CACACA_site2322] | 9.83
ATATATGTTTTTATATGTACTTATAATGTGTGTATA [XGTACX_site5165] | 9.98
AAGGAAAACAATAGGTGTACCAAACGTCCTAGGAAC [XGTACX_site5732] | 10.2
TTTCTTCATTTTTTCACACATAAGAAAATATAATCA [CACACA_site4275] | 9.49

Sequence | gcPBM binding intensity (ln)
TAAAAAAATAAAATTACACACATATATAAATATATA [CACACA_site2620] | 9.67
AAAAAAGCAATATGATGTACATTTACTTTGTGAAAG [XGTACX_site4450] | 9.64
TATATCCACATTTTTAGTACTTAAAAATAAATAAAC [XGTACX_site3826] | 9.52
TTCTGACCAATGCTATAAAATAATACAAAAGAAAAA [GTGCAC_negctrl_site3] | 9.38
TGAAGAGGAAACAAACAAAATGAATAATTAAAAAGG [CACACA_negctrl_site1601] | 9.58
TATATATAAATATGCTGTACGTTTTAATACGTTAAG [XGTACX_site2378] | 9.41
CTCAAAGGAATATTCACACATAAATTATAGACTACA [CACACA_site6050] | 9.58
TAATTATATTCACTTGCTATATAAATTATATATATT [CACACA_negctrl_site526] | 9.64
ATACACACTCAAAAAAGTACTTAACTACATGAATTG [XGTACX_site6366] | 9.83
GTATATATATATATATGCAAATGTATAAATCTACAT [CACACA_negctrl_site546] | 9.72
AAGAAAAAAATATATGTTTATTTACTTTAATAATTT [TGCATGCA_negctrl_site168] | 9.41
AAAAAAAGTTATATTACACACTTTATTCGTTAACTT [CACACA_site3013] | 9.71
ATATTTATGAAGTTCACACATATATATATATATATA [CACACA_site5954] | 9.58
ACAACAATATTTGAATGTACTCTATTTTCGTTGTTC [XGTACX_site593] | 9.74
GATAAATTAAAACACACACACATATATATATATATA [CACACA_site3962] | 10.2
AAAAAAATAGTCTTCTTGCACTTTTTAATTTATTTT | 9.6
TTATAATAAAATGAATATATATAATTTAAAATATTT [CACACA_negctrl_site1651] | 9.48
TACATATATAAAAAAACACACACATATATATATATA [CACACA_site8315] | 9.93
TGTATAATAAGGAAGAGTACAAGTAAATACACACAT [XGTACX_site2084] | 10.2
TGTATTTATAGACACACACACTTTCTTTTTTTAAGA [CACACA_site7010] | 9.96
AACAATTAGAACTTTGCACACTTCTATATATTTTGT [CACACA_site674] | 10
TATATATAAAATGTATGTACATATTTATTTATATAG [XGTACX_site657] | 9.58

Sequence | gcPBM binding intensity (ln)
AAGTGAAATAAAATATGTACATATATGTATATATAA [XGTACX_site4473] | 9.92
TTTTTTCTTCGTGTATTAAGTCACAATAGGAAAAAA [GTGCAC_negctrl_site644] | 9.16
AAAAAAAAAGAATGTGAACACACACCGTGAATATAA [CACACA_site8342] | 9.96
TATATATATAACATTGTACACACAAAGAAATAATAT [CACACA_site8998] | 9.96
TTGTATTAATAATTTTTTATATTATAGTTTATAATA [GTGCAC_negctrl_site130] | 9.44
ATCGGTATATTATTACATGAATAAACTTACACACAC [TGCATGCA_negctrl_site21] | 10.1
TTACAAAACACTTATACACACATATATATATATATA [CACACA_site2716] | 9.74
TAATATATTAAAAATAGTACATAAGAAAAATAAGTA [XGTACX_site7957] | 9.87
AAAACTATATTAATGTGTACACATCAAAATATTAAT [XGTACX_site6767] | 9.79
CAAAATTATCAGAATCGTACATTTTTAACATATAAT [XGTACX_site7909] | 9.51
ATTATAAATATCAGTGCACACATTTCTACGCAAAGT [CACACA_site4420] | 9.91
TATGTAAAATGTGTTTGTACTTATTTATTATATAAA [XGTACX_site2816] | 9.43
AAGGAGCCTATGAACACACACATGTACAGATATTAA [CACACA_site6107] | 9.96
ATATTTATTTTAATTTTTCTATATAAACTATTATGA [CACACA_negctrl_site739] | 9.4
AGGAAGGAAATAAATCAACACACATATATTATATAT [CACACA_site8678] | 9.87
TTTCTAAGAAAAAAAAAAAAAAAAAAAAAGATACAA [GTGCAC_negctrl_site525] | 9.24
TATATATATTATATATGTACATATTGTATATTTTTG [XGTACX_site4564] | 9.74
TTAAAATATGTAGCTACACACACATAAACAAAATAA [CACACA_site8244] | 10.2
TAATTATAATAATAACGTACATATATAAAATGGTGA [XGTACX_site8434] | 9.76
TTTTTTTTTCTGAATTTATAATTCAAAAATATATAT [CACACA_negctrl_site300] | 9.22
TGTAGTCTGGAGAAAAGTACACAGTATCTGGTAGCT [XGTACX_site2012] | 9.54
TATATATATATATAGGTGCTATAATTTATATACACA | 9.57

Sequence | gcPBM binding intensity (ln)
AACATAATATCATATACACACAAAAATATTGAAATA [CACACA_site2160] | 10.1
ATAATACCCATTATCTTACAACAAAATGCAAACAAA [CACACA_negctrl_site1037] | 9.6
TTATATAACTTTTCTAGTACTTGTATAAATTCCTAC [XGTACX_site3685] | 9.73
AAAAAAAAAGAAAAACGTACGTTTATTTAATATATA [XGTACX_site4018] | 9.7
AAGAACATATTATATACATGCATAATTCGATAGATT [TGCATGCA_site882] | 9.7
AAAATTAGATTATGCACACACACTTAAAAATAATAA [CACACA_site1975] | 10.2
ATATATAAGAACATATATATTGGAAATATTGAATTT [XGTACX_negctrl_site121] | 9.65
TAATAATAAAAAATACGTACATATTATTTATATATG [XGTACX_site853] | 9.63
CATTTTATTCTATATGCATGTTAAAAAATGTGTTGA [TGCATGCA_site128] | 9.49
AATAAAAATATTATATGTACATATTTTAATATATAT [XGTACX_site1259] | 9.58
TTATGGTATAAAAAAATACACACTTATATATATTCT [CACACA_site488] | 9.72
TTTTATTTTTTCTATACATGCATGTCCAATTTTCTT [TGCATGCA_site304] | 10.1
AAAAAAAAAAAAAACACACATACACGCCCACCCATA [CACACA_site3391] | 10.4
GTTTTTTTATAAAATTTTTATATAATTCTTTTATAA [CACACA_negctrl_site1605] | 9.62
TTTATTATATGCACACGTACATATAATATATATATA [XGTACX_site4108] | 9.63
TTTGCAACATATAAAAGTACAAATAATATATTTATT [XGTACX_site890] | 9.45
ATAATAAATCATCATATTACATTTATCTTTGTTGGA [CACACA_negctrl_site849] | 9.48
TACTTATTTTTATAGCATTTCACGGAGGTAGTAATA [CACACA_negctrl_site468] | 9.47
AACTGTAATTTTATACGTACATAAATAATATTATAT [XGTACX_site4277] | 9.54
AGCAGTTTTTTTTTTTTTTTTTTTTTTATTAAAAGC [XGTACX_negctrl_site392] | 9.46
TGTTTGATGGTACACGTACACACCTTGCAAATATTT [CACACA_site888] | 9.88
AATATAAAATAGAAAAATGAAAAAAAAAAAAAGGGT [CACACA_negctrl_site1263] | 9.99
